Measurements reported in ChEMBL document CHEMBL4888484, “Replenishing the malaria drug discovery pipeline: Screening and hit evaluation of the MMV Hit Generation Library 1 (HGL1) against asexual blood stage Plasmodium falciparum ,using a nano luciferase reporter read-out” (2022).
Where “and” joins values, the source holds several entries; their conditions need not be identical. Equal values may be shown once. Among all 150,000 compounds or so, about 540 (0.36%) showed an effect of 50% or more. The list shows a part of the results.

Test system: Plasmodium falciparum
Assay: Primary screen in NF54 nanoGlo assay, in single point, at 2uM, 72h; a lower Z score goes with more inhibition
Type: functional, Erythrocyte
Settings: timepoint 72 hour

Compound	% Inhibition [%]	Z score	% Inhibition (2 µM)
CCNC(=O)N1CCC(NC2CCN(c3cc(C)cc(C)c3)CC2)CC1	5	-0.74	–
CC(C)c1ccc(C(=O)N2CCc3[nH]cnc3[C@H]2c2cccnc2)c(O)n1	-14	1.28	–
Cc1ccn2c(CN3CCN(C(=O)CNS(=O)(=O)c4ccc(Cl)s4)CC3)c(C)nc2c1	10	-1.22	–
COCCn1nnc([C@@H]2CN(C(=O)Cc3csc(C)n3)CCO2)n1	-2	0.34	–
COc1c(F)cc(C(=O)NC(Cc2ccncc2)[C@H]2C[C@@H](O)C2)cc1F (stereo not given in full)	-1	0.25	–
CC(C)c1cnc(N[C@H]2CCN(C(C)(C)C)C2)nc1	-17	2.11	–
C=CCNC(=O)N1CCN(c2nc3cc(Cl)ccc3c3nnc(-c4ccc(C)cc4)n23)CC1	-14	1.41	–
CN(c1cnc2ccccc2n1)C1CN(c2ccc3nncn3n2)C1	-11	2.3	–
NC(=O)N1CCC[C@H]1C(=O)Nc1ccc2c(c1)CCC2	1	-0.1	–
CN(C)c1ccc(NC(=O)c2cnn[nH]2)cc1	-13	2.53	–
CC(C)(C)OC(=O)N1C[C@@H](C(=O)O)C[C@@H](C(C)(C)C)C1	-6	0.64	–
COc1ccc(OC)c(CNC(=O)C2CCN(C(=O)N3C[C@@H]4C[C@H](C3)[C@H]3CCCC(=O)N3C4)CC2)c1	-5	1.08	–
O=C(Nc1nncs1)c1cccc(C(=O)Nc2nncs2)n1	77	-14.68	–
COCCN1CCN(Cc2cn(-c3ccccc3)nc2-c2ccc3c(c2)OCO3)CC1	-1	0.19	–
CCc1cccc2c(=O)cc(C(C)C)n(CC(=O)NC3CC3)c12	-11	1.03	–
CS(=O)(=O)N1CCN(Cc2ccccn2)CC1	-8	0.96	–
O=C(c1[nH]cnc1-c1ccccc1)N1CCc2nocc2C1	-13	1.82	–
Cc1cc2c(cc1NC(=O)NCc1cncn1CC(C)C)OCCO2	-17	2.41	–
O=C(CN1CN(c2ccccc2)C2(CCN(C(=O)c3cccc(F)c3)CC2)C1=O)NCc1ccccc1	-13	1.27	–
CN(C)C(=O)CNC(=O)c1ccc2c(c1)n(CC1CC1)c(=O)n2C1CCCCC1	-6	1.03	–
COC(=O)c1ccc(Oc2nc(N3CCCC3)c(Cl)c3c2N(C2CCCCC2)CCS3(=O)=O)cc1	-1	0.15	–

Compound	% Inhibition [%]	Z score	% Inhibition (2 µM)
CNCCNC(=O)c1c(C)c(C)cc(C)c1C	6	-1.06	–
CC(C)N(CCN1CCCCCC1)C(=O)[C@H]1CCCN(C(=O)C(C)(C)C)C1	-8	0.92	–
CCS(=O)(=O)N1CCC[C@H](C(=O)NC2CCCCCCC2)C1	-14	2.57	–
O=C(C[C@@H]1NC(=O)N(c2ccccc2)C1=O)N1CCc2ccccc2C1	–	–	-2% and -9%
Cc1nc(NCc2ccco2)sc1C(=O)Nc1ccccc1	-16	2.95	–
O=C(C1=Cc2ccccc2OC=C1)N1CCOC[C@@H](CO)C1	-5	0.77	–
CNC(=O)c1cc(O[C@H]2CCCN(Cc3nnc(C)s3)C2)ccn1	-4	0.41	–
Cc1ccc2c(c1)nc(-n1nc(C)cc1C)c1nnnn12	37	-4.16	–
O=C(c1ccc2[nH]ncc2c1)N1CCOC[C@@H]1CC1CCC1	-18	2.19	–
Cn1ccnc1[C@H]1CCN(S(=O)(=O)c2cc(Cl)sc2Cl)C1	-6	0.54	–
O=C(Cc1ccc(N(Cc2ccc(F)cc2)C(=O)c2cccc(F)c2)cc1)NCc1ccccc1	-2	0.3	–
Cc1ncc(CNC(=O)c2cccc(CO)c2)c(O)n1	3	-0.3	–
N#CCCCCn1c(-c2cncs2)nc2ccccc21	-35	4.07	–
c1cnn(-c2ccc(CN3CCOC[C@@]34CCOC4)cc2)c1	10	-1.28	–
COCCC1(C)CN(Cc2cc(OC)ccc2OC(F)F)C1	-1	0.11	–
COc1ccc(/C=C\c2onc(C)c2NC(C)=O)cc1S(=O)(=O)Nc1ccc(Cl)cc1	0	0.02	–
O=S1(=O)CCCN1Cc1sccc1Cl	-10	1.22	–
c1ccc2c(c1)ccn2Cc1nnc2n1CCCC[C@H]2C1CCOCC1	5	-0.95	–
CCOC(=O)c1c(C)c(CCC(=O)N2CCC(C)CC2)n(C)c1C	0	0.01	–
Cc1nn(C)c(C(=O)N2CCC[C@H](c3ncon3)C2)c1Cl	-6	1.04	–
CCc1ccc(Cn2nc(CCOC)nc2Cn2cnnc2)cc1	-13	1.44	–

Compound	% Inhibition [%]	Z score	% Inhibition (2 µM)
Cc1nc(-c2cc(S(=O)(=O)N3CCC[C@H](C(=O)N4CCOCC4)C3)c(C)s2)no1	0	0.04	–
CCCn1cnnc1CN(C)C(=O)c1ccnc(OC)c1	2	-0.33	–
CCN1CCN(c2ccc(F)cc2[C@H](C)NS(=O)(=O)c2cc(C(=O)OC)ccc2C)CC1	3	-0.46	–
CCCCCNC(=O)CCC(=O)Nc1c(C)cc(C)cc1C	7	-0.83	–
CC[C@H]1CN(C(=O)c2ccc(F)cc2)CC[C@H]1CC(=O)Nc1ccccc1	-2	0.27	–
O=C(CN1C(=O)c2ccccc2C1=O)Nc1ccnn1Cc1cccc(Cl)c1	2	-0.32	–
O=C(Cn1cncn1)N1CCc2cc(Br)c(F)cc2C1	-2	0.41	–
Cc1noc(C)c1CC(=O)N[C@H](c1cccnc1)C1CCOCC1	-13	2.5	–
Cc1cccnc1Cn1ccnc1C1CCN(C(C)C)CC1	3	-0.25	–
CC(C)(C)OC(=O)N1CCC(CC(=O)N2CC[C@H](O)C2)CC1	-4	0.81	–
CC1=C[C@@H](CNCCN(C)C)[C@H](C(C)C)C[C@H]1Cc1nnc(-c2ccccc2)o1	-5	0.61	–
C=CC[C@]1(C(=O)O)CCCN(c2ccncc2)C1	-2	0.41	–
O=C(O)c1ccc(COc2ccc(CN3CC[C@H]3c3ccccc3)cc2)o1	-12	2.34	–
CN(C(=O)C[C@]1(c2ccc(-c3ccccc3)cc2)CC(=O)N(C2CC2)C1=O)C1CCOCC1	19	-2.56	–
CN1CCC(N(C)C(=O)CC[C@H]2CCCN(Cc3ccc4c(c3)OCCO4)C2)CC1	-1	0.11	–
CN(C)S(=O)(=O)N[C@H]1CCN(C(=O)c2coc3ccccc23)C[C@@H]1O	-3	0.65	–
CC(C)Cc1nc(CN2CCC[C@H]2c2cnn(C)c2)no1	-6	0.79	–
Cn1cccc1CNc1nnc(C(C)(C)C)o1	-12	1.38	–
CCOC(=O)N1CCC(N2Cc3cccc(C(=O)Nc4cccc(F)c4)c3C2=O)CC1	2	-0.29	–
CC1(Cc2nc(N)nc(NCCc3ccccc3)n2)Oc2ccccc2O1	0	-0.01	–
COCC(=O)N1CCN(Cc2nc3ccccc3n(C)c2=O)CC1	-5	0.6	–

Compound	% Inhibition [%]	Z score	% Inhibition (2 µM)
CCN(CC)C(=O)C[C@@H]1CCN2C[C@@H]1/C=C\COc1ccccc1CN(Cc1ccccn1)CC2=O	-4	0.46	–
CCc1cc(N2CCn3nc([C@H](O)c4nccn4C)cc3C2)nc(N(C)C)n1	3	-0.46	–
Cc1nn(C)c(N)c1C(=O)NC(C)(C)Cc1ccc(Cl)cc1Cl	-2	0.34	–
CCC(CC)[C@H]1CCN(CCC2OCCO2)C1	8	-1.52	–
Cc1cccc(N2CCN(C(=O)C[C@H]3CCCCN(C)C3=O)CC2)c1C	-13	2.49	–
O=C(CN1CCN(c2ccc(F)cc2)C1=O)NCCCN1CCCC1=O	2	-0.28	–
CCc1nnsc1C(=O)OCc1ccc(C(N)=O)cc1	-15	1.96	–
Cc1[nH]nc(CCC(=O)N2C[C@@H]3CC[C@H]2CN(Cc2ccncc2)C3)c1C	-12	2.05	–
CC(N)C1CCCN(C(=O)CCc2ccsc2)C1 (stereo not given)	-10	1.38	–
Cn1cc(C(NS(=O)(=O)c2ccc(F)c(Cl)c2)[C@H]2C[C@@H](O)C2)cn1 (stereo not given in full)	10	-1.38	–
N#Cc1cccc(N[C@H]2CCN(C(=O)c3ccccn3)C[C@@H]2O)n1	-6	1.24	–
CC(C)(CNC(=N)N)c1ccccc1Cl	-2	0.16	–
CCCN(CCn1cc(Cl)cn1)Cc1ccccn1	4	-0.52	–
CN(Cc1nccn1C)c1ccc(C(F)(F)F)cn1	2	-0.14	–
O=S(=O)(c1ccccc1)N(C1CC1)C1CCN(CCc2cn[nH]c2)CC1	-5	0.75	–
CC(C)c1cncc(NC(=O)C2CCC(C(=O)N(C)C)CC2)c1 (stereo not given)	-6	1.08	–
CC(C)N1CC(=O)N(Cc2n[nH]c(C(C)(C)C)n2)C1=O	-27	3.15	–
O=C(C[C@H]1CCOC1)N1CCN(Cc2ccccc2)C(=O)C1	-1	0.23	–
COc1cc(C)ccc1CN1C[C@@H]2CC[C@H]1CN(Cc1c(C)noc1C)C2	2	-0.3	–
CN1CCC(NC(C(N)=O)c2ccc(Br)cc2F)C1=O (stereo not given)	7	-0.72	–
